Assay results from article PMC4336329 (PLoS ONE, 2015).
About 2,200 (0.71%) of roughly 310,000 compounds showed an effect of 50% or more. Effects have a minus sign here. Some of the results follow.

Biological target: human ether-à-go-go-related gene (hERG) potassium channel (human, UniProt Q12809)
Experiment: primary screen, population patch clamp on CHO cells stably expressing hERG

Chain of human ether-à-go-go-related gene (hERG) potassium channel (Q12809 whole entry, looked up): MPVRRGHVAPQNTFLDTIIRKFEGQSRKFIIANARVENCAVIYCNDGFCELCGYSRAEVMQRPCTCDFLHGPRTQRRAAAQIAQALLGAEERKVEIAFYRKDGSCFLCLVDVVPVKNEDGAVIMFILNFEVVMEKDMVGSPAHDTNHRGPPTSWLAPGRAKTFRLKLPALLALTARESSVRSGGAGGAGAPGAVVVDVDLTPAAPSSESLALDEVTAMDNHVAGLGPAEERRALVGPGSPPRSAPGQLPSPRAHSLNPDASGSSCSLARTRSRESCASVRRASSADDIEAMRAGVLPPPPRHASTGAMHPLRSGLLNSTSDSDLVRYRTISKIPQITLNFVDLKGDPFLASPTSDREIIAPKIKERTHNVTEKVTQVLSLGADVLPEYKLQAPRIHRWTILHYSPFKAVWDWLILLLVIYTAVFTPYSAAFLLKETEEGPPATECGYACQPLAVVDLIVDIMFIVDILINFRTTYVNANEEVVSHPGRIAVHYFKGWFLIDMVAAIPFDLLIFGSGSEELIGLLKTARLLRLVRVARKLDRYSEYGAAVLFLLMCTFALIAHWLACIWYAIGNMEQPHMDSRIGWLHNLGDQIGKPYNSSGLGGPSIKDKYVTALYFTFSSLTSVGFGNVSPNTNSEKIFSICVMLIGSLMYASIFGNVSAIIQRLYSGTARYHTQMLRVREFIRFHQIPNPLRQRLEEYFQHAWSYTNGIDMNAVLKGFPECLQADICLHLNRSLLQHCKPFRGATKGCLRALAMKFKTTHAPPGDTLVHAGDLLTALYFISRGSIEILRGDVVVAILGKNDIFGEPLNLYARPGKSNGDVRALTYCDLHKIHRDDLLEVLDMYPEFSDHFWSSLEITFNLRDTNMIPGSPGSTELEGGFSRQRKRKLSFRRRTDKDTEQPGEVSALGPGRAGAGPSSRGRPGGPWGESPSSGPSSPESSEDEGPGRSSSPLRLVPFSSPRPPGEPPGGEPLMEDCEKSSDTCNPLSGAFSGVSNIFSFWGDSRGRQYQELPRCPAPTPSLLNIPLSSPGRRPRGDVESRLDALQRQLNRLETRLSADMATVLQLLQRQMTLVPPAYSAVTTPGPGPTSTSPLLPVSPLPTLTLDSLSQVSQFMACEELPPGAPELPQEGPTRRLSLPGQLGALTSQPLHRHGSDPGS

SMILES | hERG current change (%, negative = inhibition) at 1uM [%]
CCCC(C)C1(CC)C(=O)NC(=O)N=C1N (stereo not drawn) | -23.6
Cc1c(=O)n(OCc2ccccc2F)c2ccccc2[n+]1[O-] | 14.2
COc1cccc(-c2cc(C(F)(F)F)nc(-n3cc(C)cn3)n2)c1 | 3.67
NC1=NC(=O)C(Cc2cc(Cl)ccc2Cl)S1 (stereo not drawn) | 15.5
C/C(=N\NS(=O)(=O)c1cccc([N+](=O)[O-])c1)c1cc2ccccc2o1 | 10.4
COc1ccc(Cl)cc1NC(=S)NCCc1ccc(F)cc1 | 9.98
COc1ccc(C)cc1NC(=O)C1CCN(C(=O)c2ccco2)CC1 | 10
CN(C)c1ccc(C(C(=O)NCC2CCCO2)N(Cc2ccccc2)C(=O)c2snc(C(N)=O)c2N)cc1 (stereo not drawn) | 13.1
CCOc1ccc(C(=O)NCC(c2cccs2)N(C)C)cc1OCC (stereo not drawn) | -11.5
O=C(c1cc(COc2ccc(F)cc2Cl)on1)N1CCc2ccccc2C1 | 12.2
O=C(Nc1ccc(N2CCN(C(=O)C3CC3)CC2)cc1)c1cccs1 | 6.98
O=S(=O)(Nc1ncn[nH]1)c1ccc(Cl)cc1 | 10.2
O=C(Cn1c(=O)n(CC2CCCO2)c(=O)c2ccccc21)c1ccccc1 (stereo not drawn) | 3.9
Cc1nn(Cc2ccccc2)c(Cl)c1C(=O)OC(C)C(=O)Nc1ccc(F)cc1Cl (stereo not drawn) | 0.218
Cc1cccc(N2C(=S)N=C(Nc3c(C)cccc3C)C23CCOC(C)(C)C3)c1 (stereo not drawn) | 21.1
Nc1ccc(S(=O)(=O)NNC(=O)C(=O)NNc2ccccc2)cc1 | 10.5
O=C(Nc1c[nH]c(=O)[nH]c1=O)c1cccc(F)c1 | 4.53
COC(=O)CCCC1=CC2=CC(=O)C(C)(OC(=O)c3cccs3)C(=O)C2=CN1CC1CC1 (stereo not drawn) | 12.4
O=C(c1ccccc1F)N1CCCC(C(=O)N2CCc3ccccc3C2)C1 (stereo not drawn) | 12.3
CC(=C/c1ccccc1)/C=N/NC(=O)c1nnn(-c2nonc2N)c1CN1CCC(C)CC1 | 15.6
Cc1ccc2cc(C(=O)O)c(C)nc2c1 | 10.8
Br.CN(C)CCNc1cc(-c2ccncc2)nc2ccccc12 | 5.15
CCOC(=O)CSc1nnc(NCC(=O)OC)c(=O)[nH]1 | 15.9

SMILES | hERG current change (%, negative = inhibition) at 1uM [%]
Nc1nn(-c2ccccc2)c(N)c1N=Nc1ccccc1 | -0.274
CCN1CCN(C(=O)Nc2cccc(C(F)(F)F)c2)CC1 | 16.1
COc1ccc(C(=O)NN2CCCCC2)cc1OC | 0.647
Cc1cccc(C)c1NC(=O)N1C2CCC1CC(O)(c1cccnc1)C2 (stereo not drawn) | 6.61
Cc1nc(C(=O)NCc2ccccc2)sc1C1(C)CC(c2cccnc2)=NO1 (stereo not drawn) | 3.9
Cc1ccc(C)c(NC(=O)COC(=O)CCNC(=O)c2ccco2)c1 | 12
COc1ccc(NC(=O)COC(=O)CC2CC3CCC2C3)c([N+](=O)[O-])c1 (stereo not drawn) | 11.5
CC(=O)Nc1ccc(NC(=O)C(C)OC(=O)CC2CCCC2)cc1 (stereo not drawn) | 5.35
CCOC(=O)COc1cccc2c(=O)n(CC(=O)N3CCCCC3)ccc12 | -3.64
O=C(COC(=O)c1cccnc1Nc1cccc(C(F)(F)F)c1)NCCN1C(=O)CSC1=O | -18.5
N#CC1=C(N)Nc2nc3ccccc3n2C1c1ccc(F)cc1 (stereo not drawn) | 22.3
COc1ccc(C/C(C)=N/NC(=O)c2cccnc2)cc1 | -12.2
CCc1ccc(NC(=O)C2CCN(S(=O)(=O)c3ccc4[nH]c(=O)ccc4c3)CC2)cc1 | 9.37
CCCCC1(Br)C(=O)N(c2ccccc2)N(c2ccccc2)C1=O | -0.0461
O=C(Oc1ccc2c(c1)OCO2)C12CC3CC(CC(C3)C1)C2 | 12.8
O=C1CSc2ccc(C(=O)N3CCN(c4ccccn4)CC3)cc2N1 | -10.6
Cc1nc(Nc2ccc(S(N)(=O)=O)cc2)sc1C(=O)Nc1ccccc1 | 5.96
COc1ccc2cc(C(=O)N3CCc4ccccc43)[nH]c2c1 | 13.5
CCn1cc(CN2CCC(Oc3ccc(C(=O)N4CCCCC4)cc3)CC2)cn1 | 10.4
O=C(CS(=O)(=O)Cc1ccccc1)NCc1ccco1 | 10.6
COc1ccc(C2CC(C(F)(F)F)n3nc(C(=O)O)c(Br)c3N2)cc1 (stereo not drawn) | 13.3
COc1ccc2oc(C(=O)Nc3nc(-c4ccccn4)cs3)c(C)c2c1 | 6.57
Cc1cc2nc(C3CCN(CC4COc5ccccc5O4)CC3)[nH]c2cc1C (stereo not drawn) | -65.6

SMILES | hERG current change (%, negative = inhibition) at 1uM [%]
COc1ccc2cc(C3NC(=O)c4ccccc4N3)c(Cl)nc2c1 (stereo not drawn) | 11.4
C=CC[n+]1c(C)csc1Nc1ccc(C(=O)O)cc1.[Br-] | 10.1
O=C(CCC1CCCCC1)Nc1c2c(nn1-c1ccc(F)cc1)CS(=O)C2 (stereo not drawn) | -2.29
CCOc1ccc(NC(=O)c2cccnc2SC)cc1 | 22
Cc1nnsc1C(=O)N/N=C/c1ccc(OC(F)(F)F)cc1 | 4.29
CCSc1nnc(NC(=O)C2CCCCC2C(=O)O)s1 (stereo not drawn) | 8.19
O=S1(=O)N=C(SCCO)c2ccccc21 | 4.44
COc1cccc(CNC(=O)c2cccc(NC(=O)C3=C(C)OCCS3)c2)c1 | 10
COCCN1C(=O)c2[nH]nc(-c3ccccc3O)c2C1c1ccc(OC)cc1 (stereo not drawn) | 0.822
Cc1cccc(NC(=O)CN2CCOCC2)c1C | 12.2
O=C(O)c1ccc(COCC(F)(F)C(F)F)o1 | 17.9
COc1ccc(C2C(C(C)=O)=C(O)C(=O)N2c2nccs2)cc1OC (stereo not drawn) | -7.25
CCCCNC(=S)N=Nc1c(O)n(Cc2ccccc2)c2ccccc12 | 0.995
C=CCSc1nnc2n(CCc3ccccc3)c(=O)c3c4c(sc3n12)COC(C)(C)C4 | 10.6
COc1ccc2c(c1)c(C(=O)N/N=C/c1ccc(Cl)cc1)c(C)n2C | -10.2
CN(C)S(=O)(=O)c1cccc(C(=O)Nc2ccc(N3CCOCC3)cc2)c1.Cl | 12.8
COc1ccccc1NC(=O)CSc1nc(SC)ns1 | 11.9
CC(=O)N1CCOc2ccc(S(=O)(=O)N3CCC(C(=O)Nc4cc(C)cc(C)c4)CC3)cc21 | 15.6
O=C(OCc1cc(Cl)ccc1OC(F)F)c1cncc(Br)c1 | 9.64
COc1cc2c(cc1NC(=O)C(C)OC(=O)c1ccc(S(=O)(=O)Nc3ccccc3Cl)cc1)oc1ccccc12 (stereo not drawn) | 10.5
CCOC(=O)c1sc(N/N=C/c2ccc(N(C)C)cc2)nc1C | -0.996
CCCc1cc(=O)oc2cc(OCC(=O)NCCCN3CCOCC3)ccc12 | 6.59
CC(=O)Nc1ccc(N(C(=O)c2ccco2)C(C(=O)NC2CCCC2)c2ccc(N3CCOCC3)cc2)cc1 (stereo not drawn) | 14.3

SMILES | hERG current change (%, negative = inhibition) at 1uM [%]
O=C(Cn1c(=O)sc2ccccc21)Nc1ccc(S(=O)(=O)N2CCCC2)cc1 | 9.34
CCOC(=O)C1C(=O)CC(=O)CC1CC(C)SCC (stereo not drawn) | 13.7
COc1cc(Cl)c(C)cc1NC(=O)CSc1ccccc1 | 7.59
CCCCn1c(SCC(=O)NC2CCCC2)nc2ccccc2c1=O | 4.94
Cl.O=[N+]([O-])c1cc(S(=O)(=O)NCCCN2CCOCC2)ccc1Cl | -2.31
O=C(NC(=S)N1CCN(c2ccc(Cl)cc2[N+](=O)[O-])CC1)c1cccs1 | -0.239
Cc1ccc(N2C(=O)[C@@H]3[C@H](C2=O)[C@H]2C=CC=NN2[C@@H]3C(=O)Nc2ccccc2)cc1 | 13.3
COc1ccc(NC(=O)CSc2nc3ccccc3nc2N2CCCC2)cc1 | 15.4
CN1CCN(C(=S)Nc2cccc(Cl)c2)CC1 | 7.2
O=C(c1ccc(CN2CCOCC2)cc1)N1CCN(c2ccccc2)CC1 | 10.8
COc1ccc(NC(=O)NCCN2CCN(c3cc(OC)ccc3OC)CC2)cc1 | 13.5
Cc1ccc2c(c1)sc(C)[n+]2CCCS(=O)(=O)[O-] | 16.2
COCc1cc(C)nc(SCC(=O)Nc2ccc3c(c2)n(C)c(=O)n3C)c1C#N | 17.5
Cn1c(SCC(=O)Nc2cccnc2)nnc1-c1ccccc1F | 19.2
O=C(CN1CCOCC1)Nc1ccc(Br)cn1 | 7.12
CC(C)(C)c1csc(NC2=NS(=O)(=O)c3ccccc32)n1 | 13.7
Cc1ccc(NC(=S)NNC(=O)CSc2nc3ccccc3c(=O)n2-c2ccc(C)cc2)cc1 | 12.6
O=C(Nc1ccc2oc(-c3ccncc3)nc2c1)c1c(F)c(F)c(F)c(F)c1F | 13.4
Cc1ccccc1Nc1nnc(SCC(=O)NCc2cccs2)s1 | 4.93
S=c1[nH]c2ccccc2[nH]1 | -6.79
Cc1cccc(NC(=O)CN2CCN(C(=O)c3cnn(Cc4ccccc4)c3)CC2)c1C | -43.3
